Measurements from the supplement of paper PMC3334620.
Over roughly 33,000 sequences, “E-score (-0.5 to 0.5)” has its median near -0.036; the highest 2% begin near 0.37. The list shows a part of the results.

What follows are sequences tested against T1, Yer064c (UniProt P40041) (assay: PBM E-score (8-mer binding enrichment) (E-score (-0.5 to 0.5)); higher = stronger / more preferred TF binding; most listed sequences are background and not binding sites). Conditions: protein concentration: 200 nM; construct: GST-full length.
T1 sequence: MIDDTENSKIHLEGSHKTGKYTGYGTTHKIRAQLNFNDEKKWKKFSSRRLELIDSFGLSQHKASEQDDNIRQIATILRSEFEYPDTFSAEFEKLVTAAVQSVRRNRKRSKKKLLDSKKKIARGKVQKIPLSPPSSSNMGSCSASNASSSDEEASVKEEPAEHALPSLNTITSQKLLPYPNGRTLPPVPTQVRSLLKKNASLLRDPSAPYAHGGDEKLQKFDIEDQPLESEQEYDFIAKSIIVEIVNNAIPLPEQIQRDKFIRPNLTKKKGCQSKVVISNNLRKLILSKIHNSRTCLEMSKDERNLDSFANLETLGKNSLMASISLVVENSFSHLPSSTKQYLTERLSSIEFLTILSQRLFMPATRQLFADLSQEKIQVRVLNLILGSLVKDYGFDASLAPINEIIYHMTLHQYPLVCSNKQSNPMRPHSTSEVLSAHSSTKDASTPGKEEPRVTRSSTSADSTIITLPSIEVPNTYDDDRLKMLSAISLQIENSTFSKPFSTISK
Description: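 Universal 'all 10-mer' protein binding microarrays (Agilent AMADID 015681) probed with GST-tagged S. cerevisiae TFs (full-length or DBD) made by in vitro transcription/translation (PURExpress), about 100-200 nM. Bound TF was detected with fluorescent anti-GST. Each ungapped 8-mer (which stands for itself and its reverse complement) is scored by the PBM enrichment score (E-score), a modified Wilcoxon-Mann-Whitney statistic from -0.5 to +0.5, computed with the Universal PBM Analysis Suite. Scale: above 0.35 generally sequence-specific binding.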

Sequence | PBM E-score
CGATTAGC | 0.0915
CGCTAGAG | 0.0393
CTTCAGGC | 0.0427
CTACCGTC | -0.118
CTAGAGAG | 0.127
GGAACGAA | -0.138
ACCCCTTA | -0.00226
GTGTAAGA | 0.0664
CAAGGGTG | 0.0913
GAGGTGTA | -0.126
GCTTCGAA | -0.0636
AGACAACT | -0.0164
CTGCGCGA | 0.0369
ATATGTGG | -0.0412
GCCTTTAA | -0.0411
AATTCGGC | -0.19
CGTCATAC | 0.192
GAGAGAGA | -0.0218
AACGGTAT | -0.138
CGCACAGC | -0.212
CGCGGATC | -0.134
AATGGGTA | 0.222
GCCCCTCC | -0.244
AGGACTTA | 0.234
CCCAGTAC | 0.062

Sequence | PBM E-score
CCTGCATA | -0.199
AAGTAAGG | -0.0564
TACTCGAA | 0.0635
AAAGCATC | -0.258
AGTTCCCC | -0.184
AATCGACC | -0.108
ATGGGGAA | -0.146
GTGATCAC | 0.227
AGTGAAGC | -0.241
AAGGGGGC | -0.308
AAATCTGG | -0.0548
AGCTGAAC | -0.0485
GGTAAACA | 0.0828
ACTGTGGG | -0.00819
ATATAATG | 0.191
CCGGGCAA | -0.127
CGTAGATA | -0.103
AGATTGCA | -0.052
GCGACACA | 0.0967
ATCGTAGG | -0.0464
CACCAGTC | 0.169
GCGTTACC | -0.22
CCGCGAGC | -0.174
GGGAGACA | 0.057
AATGTGCC | -0.359

Sequence | PBM E-score
GTGTCGCA | -0.0448
TCCTTTAA | -0.0751
GAGTAGCC | -0.0295
CCCGCGTC | -0.199
CGAGTGAC | 0.244
CCCTGTCA | -0.213
AATGCAAT | -0.0785
CGAACCAG | 0.0948
GGTTGTTA | -0.0739
TCTACCAA | 0.0933
AGGGCAGA | -0.149
ACCCTGGA | -0.186
ATCGAGCG | -0.123
ACAGACCT | -0.0594
GATCTACA | 0.0313
CAAAGGTC | -0.0454
AAAATTCA | 0.123
ACGGTTGA | 0.128
AGTACCCG | 0.117
CCAGTCGA | 0.00412
AATCGGAT | 0.107
AGTCTTCG | 0.418
GGGAACGA | -0.143
CAGTGGGA | -0.0676
CATCAAAC | -0.0879

Sequence | PBM E-score
GGGTTGGA | -0.16
CGGAGAAG | -0.184
CTTACGGA | -0.00318
CCCACAAA | 0.0845
AAATAGTG | 0.062
AACTCTCA | 0.0457
CTCCTGGC | -0.123
AGTAAGAT | 0.0659
GACTGGAA | 0.139
CGACAGTA | 0.0755
AGGCGCCC | -0.281
ATATTGCC | -0.157
AACACACC | 0.0884
AGTACATC | 0.0751
ACAAAGTA | 0.0867
ACGCCCAA | -0.206
CGGCTGGA | -0.218
AGTAATAC | 0.119
GGCGCAAC | -0.304
AGTGAATA | 0.0602
ACCTCTAG | -0.0546
AAAGTAAC | -0.0294
CACTAGTC | 0.274
GCTGTCAA | -0.116
AAGGAAGG | -0.0955

Sequence | PBM E-score
TCAGAACA | 0.175
GTGCACTA | 0.0504
AAGTGAGT | 0.32
CGGTAAGA | -0.0984
ACCAGTGC | -0.227
CCCACGGG | -0.253
AACTGTGC | -0.174
CAAGCTCC | -0.273
CATTGCGC | -0.001
AATTCCCT | -0.276
GGCACCAC | -0.343
TAAGTATA | 0.127
GCGAGTAA | 0.206
ATCACCGA | 0.182
ATAGACCA | -0.0156
TCCCCAGA | -0.0137
AATATATG | -0.0314
ACACGGGC | -0.337
CGTCAGCA | -0.0315
AGTACTCC | 0.171
GATCTAAC | 0.0278
AACAGTCT | 0.204
AATTTTCT | -0.133
ATTTGAAC | 0.105
CCCGATTC | 0.0678

Sequence | PBM E-score
AACAAAGT | 0.0366
ATAAATCC | -0.252
ACACTGAC | 0.179
CTTCGTCA | 0.078
CGATACAC | 0.0107
AAAGGGCG | -0.0957
TACGCCAA | -0.0677
CCCGCCAC | -0.0887
CGCCGAGA | -0.23
CGTGGCTA | 0.122
CATCAGCA | -0.143
ACCGTTCG | -0.14
CATTGGGA | -0.101
AATCAATA | 0.261
GATCCATC | -0.0154
CGCTCTGA | 0.0188
ACGAAGAC | 0.215
CCCCGGTC | -0.331
AAGTGTTG | 0.0583
AACCAATA | 0.0442
CCCCTCCG | -0.25
AACGAACC | -0.0854
TACAGTCA | 0.418
CCAGTTGC | -0.196
TGCCCCCA | -0.24

Sequence | PBM E-score
ACAGCGAA | 0.102
TGAGAGCA | -0.215
ATCATTAA | 0.24
AAATCTGT | 0.066
CAGTGTTC | -0.0821
AGCCCAAG | -0.258
ATCTCGTC | -0.14
CCACTGCG | 0.0731
AAAATAGT | 0.124
ACAAGCGA | -0.0655
GAGCGGCC | -0.174
CCTGATAC | -0.0813
CAAGAGGC | -0.00693
ACTTAACG | 0.0504
CACGCTGC | 0.118
GATCTCTA | 0.0123
CCTTCGAC | 0.0502
AGGTCCAC | -0.254
AAAGCGGT | -0.0937
ATGTTCGC | -0.145
CACCTATG | -0.00484
ACCTGTCA | 0.044
